The full ranking holds about 33,000 sequences; the median of “E-score (-0.5 to 0.5)” is about -0.016, and the highest 2% start at about 0.32. Some of the results follow.
Target: T1, Stp1 (UniProt B3LFK1)
T1 sequence: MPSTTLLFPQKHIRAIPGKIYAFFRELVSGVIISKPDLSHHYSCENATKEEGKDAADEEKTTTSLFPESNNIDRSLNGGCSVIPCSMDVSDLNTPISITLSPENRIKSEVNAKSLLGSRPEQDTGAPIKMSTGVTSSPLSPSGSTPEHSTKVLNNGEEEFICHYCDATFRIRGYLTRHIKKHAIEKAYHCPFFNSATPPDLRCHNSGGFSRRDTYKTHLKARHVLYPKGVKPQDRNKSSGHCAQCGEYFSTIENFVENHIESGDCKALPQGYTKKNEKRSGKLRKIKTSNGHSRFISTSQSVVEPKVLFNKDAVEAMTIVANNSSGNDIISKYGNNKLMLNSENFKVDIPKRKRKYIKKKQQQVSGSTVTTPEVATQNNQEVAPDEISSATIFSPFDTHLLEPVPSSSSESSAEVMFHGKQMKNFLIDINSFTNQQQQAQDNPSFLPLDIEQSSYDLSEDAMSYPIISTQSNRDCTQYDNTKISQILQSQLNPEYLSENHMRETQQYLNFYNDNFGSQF
Assay: PBM E-score (8-mer binding enrichment) (E-score (-0.5 to 0.5)); higher = stronger / more preferred TF binding; most listed sequences are background and not binding sites
Conditions: protein concentration: 200 nM; construct: GST-full length
Procedure, shortened: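 The E-score, a modified Wilcoxon-Mann-Whitney statistic, was computed by the Universal PBM Analysis Suite for every ungapped eight-base word pooled with its reverse complement. Scans behind it were normalised with masliner after bound GST-tagged yeast transcription factors were detected with fluorescent anti-GST. The proteins, at about 100-200 nM, had been applied to universal all-10-mer Agilent arrays made double-stranded by primer extension.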

Sequence	PBM E-score
TAAGTGTA	0.0418
ATCTCTCA	0.153
GCTGGGAA	-0.223
ATTATTCA	0.0763
TAAGGATA	0.133
CTCCCAGC	-0.287
CCTTTATC	-0.101
GAGGCTCA	0.00466
AAATATAG	0.203
GCATACAC	0.0999
AGACTACG	-0.245
CGACCCCG	0.0189
CGCTTAAA	0.139
CATTTTGA	0.0378
ATAACTAC	0.113
AGAAGAGG	-0.133
CACCCCTC	-0.222
CAAGATTG	0.0193
CCTGCAGG	-0.391
CATAGTCA	-0.195
ACCCGTGC	0.237
GTTTATAA	0.223
CGAGTCTC	-0.278
CGACCTAA	0.164

Sequence	PBM E-score
CCCTGGCC	-0.213
CTTTATTC	-0.0256
GAAGAAAA	0.038
ATCGGTTA	0.0451
GCCACCGC	0.0746
GTTCTACA	-0.0548
CGGCTGCA	0.211
ATCCTAGC	-0.102
AGAAACCA	-0.0398
GGGGAAAA	-0.0879
AGATCGCC	0.128
CATAGGAC	-0.0813
CAGAACGA	0.00724
ACAGCGGG	-0.0101
ATTGCAGC	0.102
GCTACGTA	0.0838
ACTTGCAT	0.0252
ATGCCTGG	-0.138
CCCATACA	-0.13
ACCTAAAC	0.061
AGCGTCAT	-0.027
CAAAGCGG	0.255
CTTTACGC	0.161
CAATCCAG	-0.0467

Sequence	PBM E-score
CACTATGG	-0.122
ACACATAG	0.00861
GACTCGTA	-0.0514
ACAGTTAG	0.0289
AGAGTGTG	-0.0412
CAAGAACC	0.0954
TGCCGTAA	0.34
CGTTAACG	-0.107
GAGCCTAA	0.0529
ATAATTCA	0.217
GAAGGCGC	0.333
AGCTATTA	-0.0634
CGCAACTA	-0.0465
TCTGACAA	-0.0284
CCGTTCCA	0.243
CGCCTTGA	0.0844
TCGGTCAA	0.0199
CGTCGCTA	0.215
ATCGAGAT	-0.166
GCACTCCC	-0.0814
GAAACTGA	-0.0484
CCGACCTA	-0.0536
AAAGACCG	-0.0929
CACTACAA	0.169

Sequence	PBM E-score
ACGCGACG	-0.0983
ACGGCGAT	0.479
AAAGTTCT	-0.212
AATTTAGC	0.071
CAAATCTG	-0.0129
ACATAAGT	0.0342
GATTAAGC	0.0552
AAACTTCA	0.189
CTCCCCGA	-0.222
CGGTGAAA	0.106
AAGAAGAT	0.0886
AATGGGAA	-0.215
AACATGGC	0.0494
GGGGCACC	0.0924
ATACAATG	0.0101
CTTTTCCC	-0.0234
AGAAAGTG	-0.209
ATGAGTAA	-0.0488
ATTGCATC	0.115
AAAGTAAA	-0.0703
CTCCTTTA	-0.196
AAGAAATA	0.0789

Reference: the supplement of paper PMC3334620
